# Measured values reported in PubChem BioAssay AID488969 (Vanderbilt High Throughput Screening Facility, 2010).
# “And” between values parts separate entries of the source, which are not always exact repeats. Equal values may be shown once. The full ranking holds about 110,000 compounds; the median of “z-score” is about -0.1, and the highest 2% start at about 2. Some of the results follow. The source made the active and inactive calls.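 The calls were made as follows: active = z-score in the third read window above 3 or below -3; inactive = the rest.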
# Target: Metabotropic glutamate receptor 8 (Rattus norvegicus) (UniProt P70579)
# Experiment: mGluR8 Gi/Go-coupled signaling modulation – cell-based, rat, thallium flux, HTS, primary screen (AID 488969)
# Conditions: HEK293 rat mGluR8, GIRK (G protein-gated inwardly rectifying potassium channel) thallium flux, FluoZin2; at 10 µM; stronger effect = higher value; submaximal glutamate (EC20) added with thallium
# Chain of UniProt P70579 (P70579 whole entry, looked up): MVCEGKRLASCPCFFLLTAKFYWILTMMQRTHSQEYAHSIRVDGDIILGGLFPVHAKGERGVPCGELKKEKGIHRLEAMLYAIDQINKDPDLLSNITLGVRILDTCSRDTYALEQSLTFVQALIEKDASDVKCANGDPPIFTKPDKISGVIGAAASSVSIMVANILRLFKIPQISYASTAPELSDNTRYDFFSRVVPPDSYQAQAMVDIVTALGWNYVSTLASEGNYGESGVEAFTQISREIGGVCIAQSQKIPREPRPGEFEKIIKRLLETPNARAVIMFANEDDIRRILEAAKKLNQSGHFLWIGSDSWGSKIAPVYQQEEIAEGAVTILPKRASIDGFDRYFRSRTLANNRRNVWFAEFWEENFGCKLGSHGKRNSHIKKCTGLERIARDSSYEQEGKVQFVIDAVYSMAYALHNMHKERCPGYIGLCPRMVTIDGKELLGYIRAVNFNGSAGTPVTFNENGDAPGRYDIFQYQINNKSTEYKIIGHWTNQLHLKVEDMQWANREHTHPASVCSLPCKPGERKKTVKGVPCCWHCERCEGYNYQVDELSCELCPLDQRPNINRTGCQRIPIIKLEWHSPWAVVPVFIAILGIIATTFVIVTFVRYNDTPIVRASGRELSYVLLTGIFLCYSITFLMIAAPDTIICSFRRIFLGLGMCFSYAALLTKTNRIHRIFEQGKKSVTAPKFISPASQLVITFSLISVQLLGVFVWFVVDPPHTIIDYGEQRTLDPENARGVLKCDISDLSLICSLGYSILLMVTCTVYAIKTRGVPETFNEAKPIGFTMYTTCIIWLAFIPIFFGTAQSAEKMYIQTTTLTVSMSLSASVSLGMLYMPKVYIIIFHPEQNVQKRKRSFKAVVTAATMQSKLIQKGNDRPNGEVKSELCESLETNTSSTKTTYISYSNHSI
row,SMILES,z-score
1,CCC(C(=O)OC)n1cnc2c(cnn2-c2ccc(Cl)cc2)c1=O (stereo unspecified),-0.896
2,O=C(Nc1ncc([N+](=O)[O-])s1)C1CCN(S(=O)(=O)c2cnc[nH]2)CC1,-0.0778
3,Cc1cccc(C(=O)NC(=S)N2CCN(C)CC2)c1,0.0366
4,COc1ccc(OC)c(C2=NOC(C(=O)Nc3ccccc3SC)C2)c1 (stereo unspecified),-0.265
5,Cc1ccc(NC=C(S(=O)(=O)c2ccccc2)S(=O)(=O)c2ccccc2)c(C)c1,-0.184
6,CCCCCCc1cc2cc(C(=O)Nc3ccc(OC)cc3)c(=O)oc2cc1O,-0.208
7,CCCOP(=O)(OCCC)C(Nc1ccc(C(C)C)cc1)c1ccc([N+](=O)[O-])cc1 (stereo unspecified),-0.13
8,Cc1cc(N/N=C/c2ccccc2O)nc(-c2ccccc2O)n1,-0.0434
9,CCOC(=O)c1c(NC(=O)CSc2nnc(CNc3ccc(Cl)cc3)o2)sc(C)c1C,-0.783
10,COCCCn1c(Cc2csc(Nc3ccccc3)n2)nnc1SCC(N)=O,0.239
11,COC(=O)CSc1ncnc2c1cnn2Cc1ccccc1,-0.981
12,O=C(Nc1ccccc1O)c1ccc(Cl)cc1,-0.776
13,COc1ccc(CNC(=O)CSc2nc(-c3ccccc3)cc(-c3cccs3)c2C#N)cc1,-0.127
14,COc1ccc(C(=O)OCC(=O)NC2CC2)cc1[N+](=O)[O-],-0.202
15,O=C(Nc1cccc(O)c1)c1ccccc1,0.409
16,Cc1cc2nc(SCCOC(=O)Nc3ccc(Cl)cc3)nc(C)c2cc1C,-0.167
17,CC1CC2(CCCCC2)Nc2ccc3ccccc3c21 (stereo unspecified),0.162
18,CC1Cc2ccccc2N1C(=O)c1ccc2c(c1)nnn2C (stereo unspecified),0.435
19,O=C(O)CCc1c(C(=O)O)[nH]c2ccccc12,0.441
20,CCOC(=O)C(C)Sc1nc2ccccc2c(=O)n1CC1CCCCC1 (stereo unspecified),1.59
21,CCS(=O)(=O)NCCCCc1ccccc1,-0.235
22,Cn1nc(-c2ccccc2)c(COC(=O)c2cccc(Cl)c2)c1S(=O)(=O)c1ccccc1,-0.139
23,CCOc1cc(C(=O)OCC(=O)c2c(N)n(C)c(=O)n(C)c2=O)cc(OCC)c1OCC,-0.112

row,SMILES,z-score
1,O=C(NCC1CCCO1)c1cc(-c2ccc(Cl)cc2Cl)on1 (stereo unspecified),0.327
2,Cc1ccc(C(=O)Nc2ccc(S(=O)(=O)N3CCc4ccccc43)cc2)o1,-0.238
3,CCOc1cc(C(=O)Nc2ccccc2N2CCN(S(C)(=O)=O)CC2)cc(OCC)c1OCC,-0.578
4,COCCn1c(C)cc(C(=O)CSc2ncn[nH]2)c1C,1.14
5,O=C(N/N=C/c1ccc(-c2cccc([N+](=O)[O-])c2)o1)[C@H]1C[C@@H]1c1ccccc1,0.169
6,COc1ccc(/C=N/Nc2nonc2N)cc1,-0.315
7,COc1ccc(OC)c2[nH]c(=O)c(CCNC(=O)COc3ccccc3)cc12,0.555
8,CCOc1ccc(S(=O)(=O)N(C)C)cc1-c1nc2c(C(C)(C)C)nn(C)c2c(=O)[nH]1,0.117
9,CCOC(=O)c1cc(-c2ccc(C#N)cc2)nc2c1c(C)nn2CCC#N,-0.234
10,O=C(CSc1nc2ccccc2c(=O)n1-c1ccc(F)cc1F)Nc1ccc2c(c1)CCC2,0.245
11,CC(=O)NCCOc1c(C)cc(S(N)(=O)=O)cc1C,-0.603
12,Oc1[nH]c2ccc(Br)cc2c1N=Nc1ccc(C(F)(F)F)cn1,0.607
13,CCOC(=O)C(NC(C)=O)(Nc1cccc(F)c1)C(F)(F)F (stereo unspecified),0.213
14,CN(C)c1ccc(N/C=C/C(=O)c2ccc(F)cc2)cc1,-0.276
15,CC(C)(Oc1ccc(Cl)cc1)C(=O)NCc1ccco1,-0.211
16,Cc1nc(N2CCN(c3ccccc3)CC2)nc2c1C(=O)CC(C)C2 (stereo unspecified),-0.907
17,CC(=O)c1c(C)[nH]c(C(=O)OC(C)C(=O)Nc2cc(S(=O)(=O)N3CCCCC3)ccc2Cl)c1C (stereo unspecified),-0.199
18,CC(C)(C)S(=O)(=O)c1ccsc1C(=O)O,-0.136
19,CC(C)(C)N1CC(c2nc3ccccc3n2Cc2ccccc2)CC1=O (stereo unspecified),-0.396
20,Cn1cccc1/C=N/n1c(-c2ccc(C(C)(C)C)cc2)n[nH]c1=S,1.58
21,CCN(CC)S(=O)(=O)c1cc(-c2nnc(-c3ccc(Br)cc3)o2)ccc1Cl,-0.538
22,Cc1cccc(C)c1Nc1nnc(SCC(=O)Nc2cc(S(=O)(=O)N3CCCCC3)ccc2Cl)s1,-0.142
23,Cc1ccc(-c2csc3ncnc(SCC(=O)Nc4nnc(C)s4)c23)cc1,0.0561

row,SMILES,z-score
1,Cc1ccc2nc(Nc3nc(CSc4nnnn4-c4ccccc4)cc(=O)[nH]3)nc(C)c2c1,-0.118
2,NC(N)=N/N=C/c1ccc(OCc2ccc(Cl)cc2)cc1,0.337
3,COCc1nnc(NS(=O)(=O)c2ccc(C)cc2)s1,0.241
4,CN(C)CCCNCCCNC(=O)c1ccncc1,-0.0691
5,COc1ccc(Cc2noc(COc3ccc(Cl)cc3)n2)cc1,-0.523
6,CCc1cccc(Nc2c([N+](=O)[O-])cc(C(=O)N3CC(=O)Nc4ccccc43)cc2[N+](=O)[O-])c1,-1.1
7,Cc1cc(=O)oc2cc(OCc3nnc(-c4ccccc4Br)o3)ccc12,0.455
8,CCOc1ccc(Br)cc1S(=O)(=O)Nc1cccc(S(=O)(=O)N(CC)CC)c1,-0.403
9,N#CCC(=N)N1CCN(c2ccc(Cl)cc2)CC1,0.16
10,Oc1ccc(/C=N/Nc2ncnc3c2ncn3Cc2ccccc2)cc1O,-0.31
11,O=C(COC(=O)c1ccc[nH]c1=O)NCC1CCCO1 (stereo unspecified),1.3
12,COCC(C)n1c(C)cc(C(=O)COC(=O)c2n[nH]c3ccccc23)c1C (stereo unspecified),-0.0689
13,C=CCNc1cnn(-c2ccc(C)cc2)c(=O)c1Cl,-0.126
14,CN(Cc1ccccc1)C(=O)COc1ccccc1,0.95
15,CC1CCC2(CC1)Nc1ccccc1C(=O)N2c1ccccc1 (stereo unspecified),-0.807
16,O=C1C(C=Nc2ccccc2O)=C(O)c2ccccc21,-0.401
17,O=C(N/N=C\C=C\c1ccc2c(c1)OCO2)c1cccnc1,-0.156
18,CCCCNC(=S)NNC(=O)c1nn(C)cc1Cl,0.00599
19,Cc1sc2nc(CN(Cc3cccs3)C(=O)C3CC3)[nH]c(=O)c2c1C,0.3
20,O=C(CSc1nnc(CNC(=O)c2c(F)cccc2Cl)o1)c1ccccc1,0.121
21,N#Cc1ccc(C(=O)NCC(c2ccco2)N2CCCCC2)cc1 (stereo unspecified),0.912
22,CSCC[C@H](NC(=O)OC(C)(C)C)c1nnc(SCC(N)=O)o1,0.407
23,Cc1ccc(C)c(NC(=O)Cn2nnc(C(=O)NCc3cccs3)c2N)c1,-0.227

row,SMILES,z-score
1,Cc1cnc(C(=O)OCC(=O)Nc2cc(Cl)cc(Cl)c2)cn1,-0.619
2,O=C(OCn1nnc2ccccc2c1=O)c1ccco1,0.452
3,Cn1c(C(=O)OC(C(=O)NCc2ccco2)c2ccncc2)cc2sccc21 (stereo unspecified),-0.173
4,CCN1CCN(S(=O)(=O)c2cccc3nsnc23)CC1,0.524
5,Cc1ccc(C(=O)N2CCN(C(=O)c3ccc(C)c(C)c3)C(C)C2)cc1C (stereo unspecified),-0.738
6,CCN(CC)CCCNC1CCS(=O)(=O)C1 (stereo unspecified),0.0097
7,Nc1nc(COc2ccccc2)cs1,-0.178
8,CCOC(=O)COc1cc(Br)c(/C=N/Nc2ccccc2)cc1OC,-0.0959
9,COc1ccc(OCCCn2cc(/C=C3/C(=N)N4C=C(C)SC4=NC3=O)c3ccccc32)cc1,0.177
10,Oc1c(C=C2N=c3ccccc3=N2)sc(=S)n1C1CCCCC1,0.0198 and -0.0716
11,Cc1ccc(-n2c(O)c(C=NCc3ccccn3)c3ccccc3c2=O)cc1C,-1.08
12,O=C(CN1CCN(c2ccccc2)CC1)Nc1cccc(C(F)(F)F)c1,0.756
13,O=C(Cn1c(=O)oc2cc(S(=O)(=O)N3CCc4ccccc43)ccc21)N1CCCCC1,-0.0758
14,CCN(CC)CCN1C(=O)C(O)=C(C(=O)c2cc3ccccc3o2)C1c1cccnc1 (stereo unspecified),-0.315
15,CCOC(=O)Cn1ncc2c(=O)oc3ccccc3c21,-0.414
16,O=C(CC(c1ccco1)C1CCCCC1=O)c1ccccc1 (stereo unspecified),-0.656
17,Cc1ccc(N2C(=O)c3ccc(C(=O)Nc4cccnc4)cc3C2=O)c(C)c1,-0.14
18,COc1ccc(CNC(=O)CCc2c(C)nc3ncnn3c2C)cc1,0.418
19,N#Cc1c(-c2ccco2)nc(SCc2ccc(F)cc2)[nH]c1=O,active: -3.79
20,CCc1nnc(NC(=O)C2CCCN2S(=O)(=O)c2ccc(F)cc2)s1 (stereo unspecified),0.145
21,O=C(CCc1nc(-c2ccccc2)c(-c2ccccc2)o1)OCc1ccc(Cl)cc1,-1.75
22,COCCCn1ccc(O)c(Cc2ccc(F)cc2)c1=O,-0.0433
23,O=C(CSc1nc2c(c(=O)n1-c1ccc(Br)cc1)SCC2)NCc1ccco1,-0.951

row,SMILES,z-score
1,COCCn1c(SCC(=O)N2CCCC2)nnc1C(C)C,0.377
2,CCNc1nc(Oc2ccc(=O)[nH]n2)nc(SC)n1,-0.413
3,CC(=O)SC(C)CC(=O)NCc1ccccc1 (stereo unspecified),-0.123
4,CNc1ccc(NC(C)=O)cc1[N+](=O)[O-],-0.0478
5,CCOc1nc(-c2ccccc2Cl)ccc1C#N,-0.245
6,O=C(Nc1ccc([N+](=O)[O-])cc1)C1(c2ccccc2)CCOCC1,-0.322
7,CC(=O)Nc1ccc(S(=O)(=O)N2CCSCC2)cc1,-0.212
8,O=C(Nc1cccnc1)C1(F)C(F)(F)C(F)(F)C(F)(F)C(F)(F)C1(F)F,-0.383
9,Cc1cc(C)c2nc(C(F)(F)F)c(C#N)c(N)c2c1,-0.281
10,COc1ccccc1NC(=O)CNC(=O)c1ccccc1,-0.0616
11,COC(=O)c1cn(NC(=O)C2COc3ccccc3O2)c(=O)c2ccccc12 (stereo unspecified),-0.0811
12,COc1ccc(-n2c(=O)c3ccccc3n(CC(=O)NC3CCCC3)c2=O)c(OC)c1,0.165
13,Cc1cc(C(F)(F)F)nn1Cc1n[nH]c(=S)n1-c1cccc(Cl)c1,-0.0907
14,CC(C)C(=O)Nc1nnc(SCC(=O)NCc2ccco2)s1,-0.0924
15,COC(=O)Cc1cc(=O)[nH]c(/N=C(/NC(=O)c2ccccc2)Nc2ccccc2C)n1,0.0803
16,CN(C)CCCN(Cc1ccccc1)C(=S)Nc1cccc(C(F)(F)F)c1,1.48
17,Cc1cccc(C)c1NC(=O)CSc1ccc([N+](=O)[O-])cn1,-0.133
18,Cc1oc2ccc(NS(=O)(=O)c3cccc4cccnc34)cc2c1C(=O)OC(C)C,0.111
19,CCOC(=O)N1CCN(C(=O)CN(Cc2ccccc2)S(=O)(=O)c2ccc(OC)c(C)c2)CC1,-0.843
